Results published in PubChem BioAssay AID1030 (National Center for Advancing Translational Sciences (NCATS), 2008).
Values joined by “and” are separate entries in the source; they are usually repeats but may differ in a detail not shown here. Equal entries are not always repeated. Out of some 220,000 compounds screened, about 16,000 (7.3%) were called active. Inconclusive means that the source gave no clear call. Such entries were picked first, then a sample of the others. The call rests on the fitted dose curve; in most records, active means well fitted inhibition curve with a large enough effect (not every such curve was filed as active); inconclusive means small, poorly fitted or top-dose-only effect, or another doubt; inactive means no such curve, though single readings can be large or run the other way. Where the call is inconclusive, the potency comes from a doubtful curve fit.

The molecules below were run against Aldehyde dehydrogenase 1A1 (Homo sapiens) (UniProt P00352) (assay: qHTS Assay for Inhibitors of Aldehyde Dehydrogenase 1 (ALDH1A1)). Details: Purified ALDH1A1, NADH fluorescence, propionaldehyde substrate; series mostly up to 75.3 µM; activity, negative = inhibition: at the top concentration.
Chain of UniProt P00352 (P00352 whole entry, looked up): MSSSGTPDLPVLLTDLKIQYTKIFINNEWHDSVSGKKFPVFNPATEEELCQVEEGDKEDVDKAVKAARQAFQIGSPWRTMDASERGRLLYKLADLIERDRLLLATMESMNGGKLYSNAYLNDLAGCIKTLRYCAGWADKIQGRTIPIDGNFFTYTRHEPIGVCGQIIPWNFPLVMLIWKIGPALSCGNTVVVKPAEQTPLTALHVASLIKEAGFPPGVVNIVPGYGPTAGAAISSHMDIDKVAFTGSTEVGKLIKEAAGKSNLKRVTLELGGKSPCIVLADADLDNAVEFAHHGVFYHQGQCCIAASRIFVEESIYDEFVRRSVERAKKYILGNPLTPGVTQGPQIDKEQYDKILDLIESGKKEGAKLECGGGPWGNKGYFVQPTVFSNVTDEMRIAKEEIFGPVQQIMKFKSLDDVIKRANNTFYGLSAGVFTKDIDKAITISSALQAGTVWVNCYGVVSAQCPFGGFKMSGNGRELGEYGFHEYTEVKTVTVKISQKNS
Potency means the concentration at half of the fitted maximal effect; tags describe the fitted curve by direction and shape.
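Wherever activity, negative = inhibition is given: plate controls were no enzyme wells and a reference inhibitor.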

Row | SMILES | Potency | activity, negative = inhibition
1 | COc1ccc(Cl)cc1S(=O)(=O)n1cnc2ccccc21 | inconclusive: 39.8 µM [inhibitor, single point] | 
2 | O=C(C1CCC(CNS(=O)(=O)c2cccc3cccnc23)CC1)N1CCCC1 (stereo not drawn) |  | inactive: -8.33%
3 | COc1ccc(OC)c(S(=O)(=O)N2CCC(C(=O)NCCc3ccc(OC)c(OC)c3)CC2)c1 | inconclusive: 12.6 µM [inhibitor, partial curve] | 
4 | O=C(Nc1sc2c(c1C(=O)NCc1ccco1)CCCC2)c1ccc2c(c1)OCO2 | inconclusive: 3.16 µM [inhibitor, partial curve] | 
5 | Cc1ccc(N2C(=O)CC(Sc3cccs3)C2=O)cc1 (stereo not drawn) | active: 2.24 µM | 
6 | CC(C)c1ccc(S(=O)(=O)/N=C2/C=CC(=O)c3ccccc32)cc1 | active: 25.1 µM | 
7 | CC(C)CC(=O)/C(=C\c1ccc(Cl)cc1Cl)n1cncn1 | active: 22.4 µM | 
8 | COCCN(C(=O)Cc1cccs1)c1nnc(-c2ccncc2)s1 | active: 12.6 µM | 
9 | O=c1c(Cc2ccccc2)c(O)ccn1Cc1ccco1 |  | inactive: 0.836%
10 | CCn1c(SCC(=O)C(C)(C)C)nnc1-c1ccccn1 | active: 7.08 µM | 
11 | CS(=O)(=O)N(CC(=O)N1CCN(Cc2ccccc2)CC1)C1CCCCC1 | inconclusive: 25.1 µM [inhibitor, single point] | 
12 | COc1ccc(-c2cc(=O)c3cc(C)ccc3[nH]2)cc1 | inconclusive: 39.8 µM [inhibitor, single point] | 
13 | COc1ccc(OCCC(=O)OCC(=O)Nc2ccc(S(=O)(=O)N3CCOCC3)cc2)cc1 | inconclusive: 28.2 µM [inhibitor, single point] | 
14 | CCSc1ccc2nnc(-c3cccc(F)c3)n2n1 | inconclusive: 25.1 µM [inhibitor, single point] | 
15 | Nc1nc(SCCc2ccccc2)c2[nH]cnc2n1 | inconclusive: 4.47 µM [inhibitor, single point] | 
16 | [O-][N+](CCO)(CCO)c1ncnc2nc[nH]c12 |  | inactive: 3.52% [at 13.5 µM]
17 | O=C(COC(=O)C1CCC1)Nc1ccc(Oc2ccccc2)cc1 | inconclusive: 31.6 µM [inhibitor, single point] | 
18 | Cc1cc(C(=O)COC(=O)CC2Sc3ccccc3NC2=O)c(C)n1-c1ccc2c(c1)OCO2 (stereo not drawn) | inconclusive: 7.08 µM [inhibitor, partial curve] | 
19 | CCn1c(SCC(=O)NNC(=S)Nc2ccccc2)nnc1-c1ccc(Cl)cc1 |  | inactive: -3.35%
20 | O=C(Nc1ccc2oc(-c3ccccc3F)nc2c1)c1ncn[nH]1 | inconclusive: 31.6 µM [inhibitor, partial curve] | 
21 | Cc1cc(NC(=O)c2cccc(N3C(=O)CCC3=O)c2)no1 | active: 28.2 µM | 
22 | CCOC(=O)c1c(NC(=O)c2c(C)noc2C)sc2c1CCCCC2 | inconclusive: 20 µM [inhibitor, single point] | 
23 | Cc1ccc(C)n1-c1c(C(=O)NN)cnn1-c1ccccc1 | active: 3.16 µM | 
24 | CSc1ccc(/C=C/C(=O)c2ccc(O)cc2)cc1 | active: 17.8 µM | 
25 | O=C(N/N=C/c1ccccc1Br)C1CC1 |  | inactive: 5.06%

Row | SMILES | Potency | activity, negative = inhibition
26 | CCOC(=O)N1CCN(c2c(F)cc3[nH]c(=S)[nH]c3c2Br)CC1 |  | inactive: 0.431%
27 | CNC(=S)N(Cc1ccc(OC)cc1)C1CC(=O)N(c2ccc(C(=O)OC)cc2)C1=O (stereo not drawn) | inconclusive: 39.8 µM [inhibitor, single point] | 
28 | CCOc1ccc(/C=N/Nc2nc(=O)[nH]nc2C)cc1OC |  | inactive: -1.56%
29 | COc1ccccc1CN1C(=O)CCC1(C)C(=O)NC1CCCCCC1 (stereo not drawn) |  | inactive: 3.13%
30 | COc1cc2[nH]c(-c3ccc(C)cc3)cc(=O)c2cc1OC | inconclusive: 28.2 µM [inhibitor, partial curve] and inconclusive: 31.6 µM [inhibitor, partial curve] | 
31 | COc1cc(C(=O)Nc2ccc(S(=O)(=O)Nc3nccc(C)n3)cc2)cc(OC)c1OC | inconclusive: 39.8 µM [inhibitor, single point] | 
32 | Cc1ccc(NC(=O)CSc2nnc(-c3ccco3)c(-c3ccco3)n2)cc1 | active: 3.16 µM | 
33 | COc1nc(N(c2ccccc2)c2ccccc2)nc(-n2ccnc2)n1 | active: 1.41 µM | 
34 | CCOC(=O)c1c(C)noc1-c1ccc(Br)o1 | inconclusive: 28.2 µM [inhibitor, partial curve] | 
35 | Cc1ccc(C(=O)N/C(=C/c2ccco2)C(=O)NCCc2c[nH]c3ccccc23)cc1C | inconclusive: 14.1 µM [inhibitor, partial curve] | 
36 | CCOc1ccc2[nH]c(=O)c(CN(Cc3nnnn3Cc3ccco3)C3CCCCC3)cc2c1 | inconclusive: 17.8 µM [inhibitor, partial curve] | 
37 | O=[N+]([O-])c1ccccc1Nc1ccccc1 |  | inactive: 16.1%
38 | COc1ccc(Cl)cc1N=Nc1ncc[nH]1 | inactive and inconclusive: 44.7 µM [inhibitor, single point] | 
39 | COc1cccc(Nc2ncccc2C(=O)Nc2ccccc2)c1 |  | inactive: -8.99%
40 | N#Cc1ccccc1Cn1cc(/C=C/[N+](=O)[O-])c2ccccc21 | active: 3.55 µM | 
41 | COC(=O)c1ccc(C(NC(=O)OCc2ccccc2)/C(F)=C/[C@@H](C)C(=O)NCc2ccc(OC)c(OC)c2)cc1 (stereo partly drawn) | inconclusive: 10 µM [inhibitor, partial curve] and inconclusive: 17.8 µM [inhibitor, partial curve] | 
42 | COc1ccc(/C=N/NC(=O)c2ccc(Br)cc2)c(OC)c1 |  | inactive: -1.18%
43 | Brc1ccc(/C=C/C=N/Nc2nc3ccccc3s2)cc1 | inconclusive: 31.6 µM [inhibitor, single point] | 
44 | Cc1nn(-c2ccccn2)c2c1-c1nc(N3CCOCC3)ncc1CC2 | inconclusive: 28.2 µM [inhibitor, partial curve] | 
45 | Cn1c(=O)c2c(nc(N3CCc4ccccc4C3)n2Cc2ccc(Br)cc2)n(C)c1=O | inconclusive: 3.55 µM [inhibitor, single point] | 
46 | CC1=C(C(=O)Nc2ccccc2F)C(c2cccs2)NC(=S)N1 (stereo not drawn) | active: 12.6 µM | 
47 | O=C(NCCc1c[nH]c2ccc(Cl)cc12)c1cccnc1 |  | inactive: 11.2%
48 | COCC(C)n1c(SCC(=O)N2CCCCC2)nc2ccccc2c1=O (stereo not drawn) | inconclusive: 31.6 µM [inhibitor, single point] | 
49 | O=C(c1ccncc1)N1CCC2(CC1)CN(C(c1ccccc1)c1ccccc1)C2 |  | inactive: 13.9%
50 | COc1ccccc1C(OC(=O)c1ccco1)C(=O)NC(C)(C)C (stereo not drawn) | inconclusive: 39.8 µM [inhibitor, single point] | 

Row | SMILES | Potency | activity, negative = inhibition
51 | O=C(O)c1ccc(C[n+]2c(-c3ccccc3)csc2Nc2ccccc2)cc1 |  | inactive: -13.6%
52 | Cc1ccc(N2C(=O)C(CC(=O)Nc3cccc(F)c3)N(C3CC3)C2=O)cc1 (stereo not drawn) | active: 20 µM | 
53 | OCCNCc1ccc(OC2CCCC2)cc1 | inconclusive: 15.8 µM [inhibitor, partial curve] | 
54 | CCN(CC)CCCNC(=O)c1c(O)c2c([nH]c1=O)CCCC2 | inconclusive: 39.8 µM [inhibitor, single point] | 
55 | O=S(=O)(Nc1ccc(S(=O)(=O)N2CCCCCC2)cc1)c1cccs1 | inconclusive: 35.5 µM [inhibitor, single point] | 
56 | O=Cc1cccn1Cc1ccccc1[N+](=O)[O-] | inconclusive: 35.5 µM [inhibitor, partial curve] | 
57 | Cc1c(-c2ccc(O)cc2)nn(-c2ccc(O)cc2)c1-c1ccc(OCCN2CCCCC2)cc1 | inconclusive: 28.2 µM [inhibitor, partial curve] | 
58 | O=C(NC1CCCCC1)c1ccc2c(=O)n(CC3CCCO3)c(=O)[nH]c2c1 (stereo not drawn) | inconclusive: 15.8 µM [inhibitor, partial curve] | 
59 | COC(=O)c1sc(=S)n(-c2cc(F)ccc2F)c1N | active: 25.1 µM | 
60 | CCCCOC(=O)C1=C(C)Nc2ncnn2C1c1ccc(OC)c(OC)c1OC (stereo not drawn) |  | inactive: -4.55%
61 | CCOc1cccc2cc(C(=O)NCCC3=CCCCC3)c(=O)oc12 | active: 25.1 µM | 
62 | Cc1ccc(N(CC(=O)NCCSCc2ccco2)S(C)(=O)=O)cc1 | active: 8.91 µM | 
63 | O=C(CSc1nncs1)NC(=O)NCc1ccccc1 | inconclusive: 17.8 µM [inhibitor, single point] | 
64 | CCOc1cc(/C=N/NC(=O)CN2CCCCC2)ccc1OCc1cccc(Cl)c1 | inconclusive: 39.8 µM [inhibitor, single point] | 
65 | O=C(CSc1ccc([N+](=O)[O-])cn1)Nc1ccc(N2CCOCC2)c(Cl)c1 | active: 22.4 µM | 
66 | CCCCNC(=S)N1CCN(C)CC1 | inconclusive: 11.2 µM [inhibitor, partial curve] | 
67 | O=C(CSc1oc(-c2cccs2)nc1S(=O)(=O)c1ccccc1)NC1CCCCC1 | inconclusive: 22.4 µM [inhibitor, partial curve] | 
68 | COc1cc(-c2nc3c(c(C)nn3-c3ccccc3)c3cc(OC)c(OC)cc23)ccc1O | inconclusive: 0.355 µM [inhibitor, partial curve] | 
69 | CCOc1ccccc1NC(=O)Cn1cnc2c(cnn2-c2ccc(C)c(C)c2)c1=O | inconclusive: 39.8 µM [inhibitor, single point] | 
70 | CCCCn1c(=O)[nH]c2ccccc21 |  | inactive: 7.87%
71 | O=C(O)CC1S/C(=N/N=C/C=C/c2ccccc2)NC1=O (stereo not drawn) | inactive | 
72 | Cc1cccc(N2CCN(c3nc4ccc(Cl)cc4n4cnnc34)CC2)c1C | inconclusive: 18.9 µM [inhibitor, partial curve] | 
73 | COc1ccc(CNc2nc(NCc3ccc(OC)cc3)n(C(=O)c3ccncc3)n2)cc1 | inconclusive: 14.1 µM [inhibitor, partial curve] | 
